The record followed here is patent US20250368649A1, “TETRAHYDROPYRIDOPYRIMIDINE PAN-KRAS INHIBITORS” (Mirati Therapeutics, Inc., priority 2022, published 2025).

In one assay the test system is MKN1 cells. Put plainly: Inhibition of KRas-mediated phosphorylation of ERK (Cisbio HTRF pERK), MKN1 cells. The class given is cell-based. To be noted: Homo sapiens, MKN-1, 3 hour compound incubation. How it is done: (§1) Inhibition of KRas Phosphorylation of ERK (HTRF) by Exemplary Compounds of Formula (I) Cisbio HTRF Advanced pERK Assay Catalog #64AERPEH • Cells: MKN1, PSN1 • Procedure: • Day 1: Seed 6,000 cells/well -25 µl/well in 384-well white solid bottom plate; RPM1_10% FBS.
(Time-resolved FRET reads energy transfer from a long-lived donor to a nearby acceptor.)

In a further assay the test system is PSN1 cells. Put plainly: Inhibition of KRas-mediated phosphorylation of ERK (Cisbio HTRF pERK), PSN1 cells. To be noted: Homo sapiens, PSN1, 3 h, 3 hour compound incubation, Cisbio pERK HTRF. It is filed as cell-based. How it is done: as §1
Another assay concerns ASPC1 cells. Put plainly: Inhibition of KRas-mediated phosphorylation of ERK (Cisbio HTRF pERK), ASPC1 cells. It is filed as cell-based. The conditions noted are these: Homo sapiens, ASPC1, 3 h, AsPC-1 cells; 3 hr compound incubation; Cisbio pERK HTRF.
Another assay relates to H727 cells. Put plainly: Inhibition of KRas-mediated phosphorylation of ERK (Cisbio HTRF pERK), H727 cells. The class given is cell-based. To be noted: Homo sapiens, NCI-H727, 3 h, 3 hr compound incubation, Cisbio pERK HTRF.
In another assay the test system is A549 cells. The assay is described as follows: Inhibition of KRas-mediated phosphorylation of ERK (Cisbio HTRF pERK), A549 cells. The class given is cell-based. To be noted: Homo sapiens; for inhibition at 0.1 µM: single point at 100 nM, 3 hrs compound incubation.
The next assay relates to H460 cells. Put plainly: Inhibition of KRas-mediated phosphorylation of ERK (Cisbio HTRF pERK), H460 cells. It is filed as cell-based. The conditions noted are these: Homo sapiens; for inhibition at 0.1 µM: NCI-H460, single point at 100 nM, 3 hrs compound incubation.
In the next assay the test system is HCT116 cells. Put plainly: Inhibition of KRas-mediated phosphorylation of ERK (Cisbio HTRF pERK), HCT116 cells. The class given is cell-based. The conditions noted are these: Homo sapiens; for inhibition at 0.1 µM: HCT-116, single point at 100 nM, 3 hrs compound incubation.
In a further assay the test system is H358 cells. Put plainly: Inhibition of KRas-mediated phosphorylation of ERK (Cisbio HTRF pERK), H358 cells. The class given is cell-based. The conditions noted are these: Homo sapiens; for inhibition at 0.1 µM: NCI-H358, single point at 100 nM, 3 hrs compound incubation.
For a further assay, the target named is KRas WT (Homo sapiens, UniProt P01116). The assay is described as follows: KRas binding assay (TR-FRET displacement), KRas WT. The conditions noted are these: single point, 10 nM compound.
Another assay addresses KRas G12A (Homo sapiens, UniProt P01116, G12A). The class given is binding. The conditions noted are these: single point, 10 nM compound, read-out: Binding to KRas (% inhibition at 10 nM) G12A.
The next assay has as its target KRas G12C (Homo sapiens, UniProt P01116, G12C). The class given is binding. The conditions noted are these: single point, 10 nM compound, read-out: Binding to KRas (% inhibition at 10 nM) G12C.
The next assay concerns the target KRas G12S (Homo sapiens, UniProt P01116, G12S). It is filed as binding. The conditions noted are these: single point, 10 nM compound, read-out: Binding to KRas (% inhibition at 10 nM) G12S.
The target of the next assay is KRas G13D (Homo sapiens, UniProt P01116, G13D). The class given is binding. The conditions noted are these: single point, 10 nM compound, read-out: Binding to KRas (% inhibition at 10 nM) G13D.
The target in another assay is KRas Q61H (Homo sapiens, UniProt P01116, Q61H). The assay is described as follows: KRas binding assay (TR-FRET displacement), KRas Q61H. To be noted: single point, 10 nM compound.

Regarding `CCc1c(F)ccc2cc(O)cc(N3CCc4c(nc(OC[C@@]56CCCN5C[C@H](F)C6)nc4N4CCCn5nc(C(=O)N6C7CC6CN(C)C7)cc5C4)C3)c12` [Example 271, (5-(7-(8-ethyl-7-fluoro-3-hydroxynaphthalen-1-yl)-2-(((2R,7aS)-2-fluorohexahydro-1H-pyrrolizin-7a-yl)methoxy)-5,6,7,8-tetrahydropyrido[3,4-d]pyrimidin-4-yl)-5,6,7,8-tetrahydro-4H-pyrazolo[1,5-a][1,4]diazepin-2-yl)(3-methyl-3,6-diazabicyclo[3.1.1]heptan-6-yl)methanone], the IC50 (commonly the concentration at which inhibition is half-maximal) in the assay with MKN1 cells was 42.9 nM; with PSN1 cells it was above 10000 nM; in the assay with ASPC1 cells it was 10 nM; with H727 cells it was 18 nM. For the same compound, the inhibition (commonly the relative decrease from the control value, in per cent) at 0.1 µM was 31% in the assay with A549 cells, 34% in the assay with H460 cells, 19% in the assay with HCT116 cells and 94% in the assay with H358 cells.
Take `CCc1c(F)ccc2cc(O)cc(N3CCc4c(nc(OC[C@@]56CCCN5C[C@H](F)C6)nc4N4CCCn5nc(N(C)C(=O)N(C)C)cc5C4)C3)c12` [Example 272, 1-(5-(7-(8-ethyl-7-fluoro-3-hydroxynaphthalen-1-yl)-2-(((2R,7aS)-2-fluorohexahydro-1H-pyrrolizin-7a-yl)methoxy)-5,6,7,8-tetrahydropyrido[3,4-d]pyrimidin-4-yl)-5,6,7,8-tetrahydro-4H-pyrazolo[1,5-a][1,4]diazepin-2-yl)-1,3,3-trimethylurea]: the IC50 is 510 nM in the assay with MKN1 cells, above 10000 nM in the assay with PSN1 cells, 528 nM with ASPC1 cells and 1930 nM in the assay with H727 cells. Also, the inhibition at 0.1 µM with A549 cells is -15%; in the assay on H460 cells, 22%; in the assay on HCT116 cells it was 19%; with H358 cells, -5%.
Take `CCc1c(F)ccc2cc(O)cc(N3CCc4c(nc(OC[C@@]56CCCN5C[C@H](F)C6)nc4N4CCCn5nc(C(=O)N6CC7CNCC7C6)cc5C4)C3)c12` (stereo partly drawn) [Example 273, (5-(7-(8-ethyl-7-fluoro-3-hydroxynaphthalen-1-yl)-2-(((2R,7aS)-2-fluorohexahydro-1H-pyrrolizin-7a-yl)methoxy)-5,6,7,8-tetrahydropyrido[3,4-d]pyrimidin-4-yl)-5,6,7,8-tetrahydro-4H-pyrazolo[1,5-a][1,4]diazepin-2-yl)(hexahydropyrrolo[3,4-c]pyrrol-2(1H)-yl)methanone]: the IC50 in the assay on MKN1 cells is 218 nM; in the assay on PSN1 cells, above 10000 nM; in the assay with ASPC1 cells, 202 nM; in the assay on H727 cells it was 239 nM. In addition, the inhibition at 0.1 µM with A549 cells was found to be 22%; in the assay on H460 cells it was 5%; in the assay with HCT116 cells, 10%; in the assay with H358 cells it was 6%.
As for `CCc1c(F)ccc2cc(O)cc(N3CCc4c(nc(OC[C@@]56CCCN5C[C@H](F)C6)nc4N4CCCn5nc(C(=O)N6CCC7(CCCCN7)C6)cc5C4)C3)c12` (stereo partly drawn) [Example 275, (5-(7-(8-ethyl-7-fluoro-3-hydroxynaphthalen-1-yl)-2(((2R,7as)-2-flurohexahydro-1H-pyrrolizin-7a-yl)methoxy)-5,6,7,8-tetrahydropyrido[3,4-d]pyrimidin-4yl)-5,6,7,8-tetrahydro-4H-pyrazolo[1,5-a][1,4]diazepin-2-yl)(2,6-diazaspiro[4.5]decan-2yl)methanone], the half-inhibitory concentration (IC50) with MKN1 cells was 91.3 nM; with PSN1 cells, above 10000 nM; in the assay with ASPC1 cells it was 26 nM; in the assay with H727 cells, 115 nM. Also, the inhibition at 0.1 µM with A549 cells is 59%; with H460 cells, 16%; with HCT116 cells, -10%; in the assay with H358 cells, 78%.
Take `CCc1c(F)ccc2cc(O)cc(N3CCc4c(nc(OC[C@@]56CCCN5C[C@H](F)C6)nc4N4CCCn5nc(C(=O)N6CCC7(CCCN7)C6)cc5C4)C3)c12` (stereo partly drawn) [Example 276, (5-(7-(8-ethyl-7-fluoro-3-hydroxynaphthalen-1-yl)-2-(((2R,7aS)-2-fluorohexahydro-1H-pyrrolizin-7a-yl)methoxy)-5,6,7,8-tetrahydropyrido[3,4-d]pyrimidin-4-yl)-5,6,7,8-tetrahydro-4H-pyrazolo[1,5-a][1,4]diazepin-2-yl)(1,7-diazaspiro[4.4]nonan-7-yl)methanone]: the half-inhibitory concentration (IC50) in the assay with MKN1 cells is 144 nM; with PSN1 cells, above 10000 nM; in the assay on ASPC1 cells it was 37 nM; in the assay with H727 cells, 297 nM. Besides, the inhibition at 0.1 µM was 16% with A549 cells, -17% in the assay on H460 cells, -1% in the assay with HCT116 cells and 42% with H358 cells.
Consider `CCc1c(F)ccc2cc(O)cc(N3CCc4c(nc(OC[C@@]56CCCN5C[C@H](F)C6)nc4N4CCCn5nc(C(=O)N6CC7CCC6C7)cc5C4)C3)c12` (stereo partly drawn) [Example 307, 2-azabicyclo[2.2.1]heptan-2-yl(5-(7-(8-ethyl-7-fluoro-3-hydroxynaphthalen-1-yl)-2-(((2R,7aS)-2-fluorohexahydro-1H-pyrrolizin-7a-yl)methoxy)-5,6,7,8-tetrahydropyrido[3,4-d]pyrimidin-4-yl)-5,6,7,8-tetrahydro-4H-pyrazolo[1,5-a][1,4]diazepin-2-yl)methanone], for which the inhibition at 0.01 µM was 95% at KRas WT; 94% on KRas G12A; 98% at KRas G12C; 97% at KRas G12S; 94% on KRas G13D; 96% at KRas Q61H. The IC50 in the assay with MKN1 cells was determined as 9.1 nM; with PSN1 cells, 2970 nM; with ASPC1 cells it was 5 nM; in the assay on H727 cells it was 9 nM; in the assay with A549 cells (A549, 3 h, 3 hr compound incubation, Cisbio pERK HTRF), 18 nM; in the assay with H460 cells (NCI-H460, 3 h, 3 hr compound incubation, Cisbio pERK HTRF) it was 42 nM. Further, the IC50 in the assay with HCT116 cells (HCT-116, 3 h, 3 hr compound incubation, Cisbio pERK HTRF) is 179 nM; in the assay with H358 cells (NCI-H358, 3 h, 3 hr compound incubation, Cisbio pERK HTRF), 5 nM. In addition, the inhibition at 0.1 µM in the assay with A549 cells is 76%; in the assay on H460 cells it was 82%; in the assay on HCT116 cells, 53%; with H358 cells, 102%.
As for `CCc1c(F)ccc2cc(O)cc(N3CCc4c(nc(OC[C@@]56CCCN5C[C@H](F)C6)nc4N4CCCn5nc(C(N)=O)cc5C4)C3)c12` [Example 308, 5-(7-(8-ethyl-7-fluoro-3-hydroxynaphthalen-1-yl)-2-(((2R,7aS)-2-fluorohexahydro-1H-pyrrolizin-7a-yl)methoxy)-5,6,7,8-tetrahydropyrido[3,4-d]pyrimidin-4-yl)-5,6,7,8-tetrahydro-4H-pyrazolo[1,5-a][1,4]diazepine-2-carboxamide], the inhibition at 0.01 µM amounted to 94% at KRas WT; 95% at KRas G12A; 98% on KRas G12C; 98% at KRas G12S; 93% on KRas G13D; 94% at KRas Q61H. Also, the concentration for half-maximal inhibition (IC50) is 11 nM in the assay on MKN1 cells, 3480 nM in the assay with PSN1 cells, 13 nM with ASPC1 cells and 13 nM in the assay on H727 cells. The inhibition at 0.1 µM with A549 cells was determined as 62%; in the assay with H460 cells, 41%; in the assay on HCT116 cells, 23%; in the assay on H358 cells, 93%.
